{"source": "patent US12227500B2", "about": "“Substituted pyrrolo[2,3-b]pyridines for suppressing toxic endoplasmic reticulum stress” (THE TRUSTEES OF COLUMBIA UNIVERSITY IN THE CITY OF NEW YORK, priority 2018, dated 2025)", "note": "Peptide text beside a SMILES is read from it. * marks the point of attachment. Cbz = O=C(OCc1ccccc1)*; CH2F = FC*", "data": [{"test_system": "Hb9::GFP-hSOD1^G93A motor neurons", "settings": "7.5 μM CPA; best time point (24 or 48 hrs post CPA) and concentration tested", "units": {"% rescue of CPA toxicity Cell death": "%", "% rescue of CPA toxicity Neurite growth": "%"}, "values": [{"molecule": "C[C@H](CCC(=O)O)[C@H]1CCC2=C3CC[C@@H]4C[C@H](O)CC[C@]4(C)[C@H]3C[C@H](O)[C@@]21C", "note": "[ApoCA]", "% rescue of CPA toxicity Cell death": 1.202, "% rescue of CPA toxicity Neurite growth": "−4.778"}, {"molecule": "C[C@H](CCC(=O)O)[C@H]1CC[C@H]2[C@@H]3[C@H](O)C[C@@H]4C[C@H](O)CC[C@]4(C)[C@H]3CC[C@]12C", "note": "[CDCA]", "% rescue of CPA toxicity Cell death": 11.22, "% rescue of CPA toxicity Neurite growth": 18.22}, {"molecule": "CC[C@H](C)[C@H](NC(=O)OCc1ccccc1)C(=O)N[C@@H](CCC(=O)OC)C(=O)N[C@H](C(=O)N[C@@H](CC(=O)OC)C(=O)CF)[C@@H](C)O", "note": "[Caspase-8 inhibitor II] (Cbz-IE(OMe)TD(OMe)-CH2F)", "% rescue of CPA toxicity Cell death": 2.17, "% rescue of CPA toxicity Neurite growth": 45.45}, {"molecule": "O=S(=O)(NCCNC/C=C/c1ccc(Br)cc1)c1cccc2cnccc12", "note": "[Compound H89]", "% rescue of CPA toxicity Cell death": "−30.1", "% rescue of CPA toxicity Neurite growth": "−22.31"}, {"molecule": "C[C@H](CCC(=O)O)[C@H]1CC[C@H]2[C@@H]3CC[C@@H]4C[C@H](O)CC[C@]4(C)[C@H]3C[C@H](O)[C@]12C", "note": "[DCA]", "% rescue of CPA toxicity Cell death": 20.51, "% rescue of CPA toxicity Neurite growth": 33.79}, {"molecule": "CC1CNCCN1S(=O)(=O)c1cccc2cnccc12.Cl.Cl", "note": "(stereo not drawn) [H-7 dihydrochloride]", "% rescue of CPA toxicity Cell death": 65.1, "% rescue of CPA toxicity Neurite growth": 86.72}, {"molecule": "Cc1cc(NC(=O)c2cccc(NC(=O)/C=C/CN(C)C)c2)ccc1Nc1nccc(-c2cccnc2)n1", "note": "[JNK-IN-8]", "% rescue of CPA toxicity Cell death": 43.27, "% rescue of CPA toxicity Neurite growth": 16.24}, {"molecule": "Cc1ccc(/C=C2\\CNC/C(=C\\c3ccc(C)cc3)C2=O)cc1.Cl", "note": "[NSC632839]", "% rescue of CPA toxicity Cell death": 3.129, "% rescue of CPA toxicity Neurite growth": 10.71}, {"molecule": "COc1nccc(-c2c(-c3ccc(F)cc3)ncn2C2CCC(O)CC2)n1", "note": "(stereo not drawn) [SB293063]", "% rescue of CPA toxicity Cell death": 39.24}, {"molecule": "C[C@H](CCC(=O)NCCS(=O)(=O)O)[C@H]1CC[C@H]2[C@@H]3CC[C@@H]4C[C@H](O)CC[C@]4(C)[C@H]3C[C@H](O)[C@]12C", "note": "[TDCA]", "% rescue of CPA toxicity Cell death": 10.96, "% rescue of CPA toxicity Neurite growth": 65.83}, {"molecule": "CNTF: ciliary neurotrophic factor (protein, UniProt P26441 1-200, looked up) Ciliary neurotrophic factor: MAFTEHSPLTPHRRDLCSRSIWLARKIRSDLTALTESYVKHQGLNKNINLDSADGMPVASTDQWSELTEAERLQENLQAYRTFHVLLARLLEDQQVHFTPTEGDFHQAIHTLLLQVAAFAYQIEELMILLEYKIPRNEADGMPINVGDGGLFEKKLWGLKVLQELSQWTVRSIHDLRFISSHQTGIPARGSHYIANNKKM", "% rescue of CPA toxicity Cell death": 27.21, "% rescue of CPA toxicity Neurite growth": 50.78}, {"molecule": "BDNF: brain-derived neurotrophic factor (protein, UniProt P23560 19-247, looked up) Neurotrophic factor BDNF …: APMKEANIRGQGGLAYPGVRTHGTLESVNGPKAGSRGLTSLADTFEHVIEELLDEDQKVRPNEENNKDADLYTSRVMLSSQVPLEPPLLFLLEEYKNYLDAANMSMRVRRHSDPARRGELSVCDSISEWVTAADKKTAVDMSGGTVTVLEKVPVSKGQLKQYFYETKCNPMGYTKEGCRGIDKRHWNSQCRTTQSYVRALTMDSKKRIGWRFIRIDTSCVCTLTIKRGR", "% rescue of CPA toxicity Cell death": 12.36, "% rescue of CPA toxicity Neurite growth": 16.59}, {"molecule": "GDNF: glial cell-derived neurotrophic factor (protein, UniProt P39905 78-211, looked up) Glial cell line-derived …: SPDKQMAVLPRRERNRQAAAANPENSRGKGRRGQRGKNRGCVLTAIHLNVTDLGLGYETKEELIFRYCSGSCDAAETTYDKILKNLSRNRRLVSDKVGQACCRPIAFDDDLSFLDDNLVYHILRKHSAKRCGCI", "% rescue of CPA toxicity Cell death": 28.47, "% rescue of CPA toxicity Neurite growth": 43.14}, {"molecule": "CT1: neurotrophic factor Cardiotrophin-1 (protein, UniProt Q16619 1-201, looked up) Cardiotrophin-1: MSRREGSLEDPQTDSSVSLLPHLEAKIRQTHSLAHLLTKYAEQLLQEYVQLQGDPFGLPSFSPPRLPVAGLSAPAPSHAGLPVHERLRLDAAALAALPPLLDAVCRRQAELNPRAPRLLRRLEDAARQARALGAAVEALLAALGAANRGPRAEPPAATASAASATGVFPAKVLGLRVCGLYREWLSRTEGDLGQLLPGGSA", "% rescue of CPA toxicity Cell death": 47.45, "% rescue of CPA toxicity Neurite growth": 62.32}]}]}
